Out of some 220,000 compounds screened, about 16,000 (7.3%) were called active. Inconclusive results, whose numbers are uncertain, are shown with a selection of clear calls. Calls follow the shape of the dose curve; as a rule, active = well fitted inhibition curve with a large enough effect (not every such curve was filed as active); inconclusive = small, poorly fitted or top-dose-only effect, or another doubt; inactive = no such curve, though single readings can be large or run the other way. Potencies of inconclusive entries are left out as doubtful fits.
Target: Aldehyde dehydrogenase 1A1 (Homo sapiens) (UniProt P00352)
Test: qHTS Assay for Inhibitors of Aldehyde Dehydrogenase 1 (ALDH1A1);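 as to activity, negative = inhibition: plate controls were no enzyme wells and a reference inhibitor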
Details: Purified ALDH1A1, NADH fluorescence, propionaldehyde substrate; series mostly up to 75.3 µM; activity, negative = inhibition: at the top concentration
Potency is read from the fitted curve at half-maximal effect; tags tell the direction and shape of the fitted curve.

UniProt P00352, sequence (P00352 whole entry, looked up): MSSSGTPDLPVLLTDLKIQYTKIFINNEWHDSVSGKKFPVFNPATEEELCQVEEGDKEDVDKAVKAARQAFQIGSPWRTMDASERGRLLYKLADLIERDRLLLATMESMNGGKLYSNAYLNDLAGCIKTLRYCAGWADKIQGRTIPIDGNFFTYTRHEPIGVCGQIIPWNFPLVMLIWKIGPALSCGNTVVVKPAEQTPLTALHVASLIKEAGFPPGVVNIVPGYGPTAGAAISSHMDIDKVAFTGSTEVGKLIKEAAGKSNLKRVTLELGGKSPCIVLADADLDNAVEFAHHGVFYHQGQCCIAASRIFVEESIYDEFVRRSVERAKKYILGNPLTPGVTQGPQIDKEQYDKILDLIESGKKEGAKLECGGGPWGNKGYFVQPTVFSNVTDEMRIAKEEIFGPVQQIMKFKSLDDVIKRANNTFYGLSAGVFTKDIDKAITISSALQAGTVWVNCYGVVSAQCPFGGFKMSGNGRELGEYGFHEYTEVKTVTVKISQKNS

Question: How did the Potency turn out when `C=CCc1cccc(C=Nc2cccn3cc(-c4ccccc4)nc23)c1O` was run?
Answer: Its Potency is inconclusive [inhibitor, single point].

Question: With `COC(=O)[C@@]1(Cc2ccccc2)[C@H]2c3cc(C(=O)N(C)C)n(Cc4c(CO)[nH]cc(C)c4=O)c3C[C@H]2CN1C(=O)c1ccccc1` as the molecule, how does the “activity, negative = inhibition” value read?
Answer: Its value is inactive: -4.01%.

Question: `COc1cccc(-c2nc(CC(=O)O)cs2)c1OC` was tested. Which Potency did it give?
Answer: Its Potency is inconclusive [inhibitor, single point].

Question: With `CCN=C1NN=C(c2cc(C)n(Cc3ccco3)c2C)CS1` as the molecule, how does the Potency read?
Answer: Its Potency is inconclusive [inhibitor, partial curve, poor fit].

Question: Which “activity, negative = inhibition” value does the source give for `Cc1c(C#N)c2ccccc2n1CC(=O)N1CCc2ccccc2C1` here?
Answer: Its value is inactive: 3.22%.

Question: For `CN1N=C2c3ccccc3CCCC2C1c1ccc(F)cc1` (stereo unspecified), which Potency is on record?
Answer: Its Potency is inconclusive [inhibitor, partial curve].

Question: With `COc1nc(OC)nc(N2CCC(C(=O)Nc3cccc4ccccc34)CC2)n1` as the molecule, how does the “activity, negative = inhibition” value read?
Answer: Its value is inactive: 16.7%.

Question: `CCN(CC)S(=O)(=O)c1ccc(N(C)CCc2ccc(OC)c(OC)c2)nc1` was tested. Which “activity, negative = inhibition” value did it give?
Answer: The value was inactive: 6.98%.

Question: With `CCN1C(=O)/C(=C2/C(=O)N3c4c(cc(OC(C)=O)cc42)C(C)=CC3(C)C)SC1=S` as the molecule, how does the Potency read?
Answer: The Potency was inconclusive [inhibitor, single point].

Question: With `Cn1cc(CN2CCC(C(O)c3cccs3)CC2)c(-c2cccc(Cl)c2)n1` (stereo unspecified) as the molecule, how does the Potency read?
Answer: The Potency was inconclusive [inhibitor, partial curve].

Question: How did the “activity, negative = inhibition” value turn out when `Cc1ccc(N(C(=O)c2csnn2)C(C(=O)NC(C)(C)C)c2ccncc2)cc1` (stereo unspecified) was run?
Answer: Its value is inactive: 0.255%.

Question: `CCOC(=O)Nc1sc(NS(=O)(=O)c2ccc(C)cc2)nc1C` was tested. Which Potency did it give?
Answer: The Potency was inconclusive [inhibitor, single point].

Question: For `COCc1cc(C)c2c(N)c(C#N)sc2n1`, which Potency is on record?
Answer: Its Potency is inconclusive [inhibitor, single point].

Question: For `O=C(NCc1ccco1)c1ccc2c(c1)C(=O)N(Cc1ccccc1)C2=O`, which Potency is on record?
Answer: The Potency was active: 12.6 µM.

Question: How did the Potency turn out when `COc1ccc(/C=N/NC(=O)c2nc(-c3ccccc3)cc(-c3ccccc3)n2)cc1` was run?
Answer: Its Potency is inconclusive [inhibitor, single point].

Question: For `O=C(NN1C(=O)C2C(c3ccccc3)C=CC(c3ccccc3)C2C1=O)c1ccncc1` (stereo unspecified), which “activity, negative = inhibition” value is on record?
Answer: The value was inactive: -11.1%.

Question: `O=C(Cc1cccs1)N1CCN(C(=O)C2CCCO2)CC1` (stereo unspecified) was tested. Which Potency did it give?
Answer: The Potency was inconclusive [inhibitor, single point].

Question: With `CCCCNc1ccc(S(N)(=O)=O)cc1[N+](=O)[O-]` as the molecule, how does the “activity, negative = inhibition” value read?
Answer: Its value is inactive: 13.9%.

Question: How did the Potency turn out when `CCc1ccc(NC(=O)c2cc3c(C)nc4ccccc4c3o2)cc1` was run?
Answer: Its Potency is inconclusive [inhibitor, partial curve].

Question: `COc1cccc2c1C(=O)CC(c1ccccc1)O2` (stereo unspecified) was tested. Which Potency did it give?
Answer: The Potency was inconclusive [inhibitor, partial curve].

Question: Which Potency does the source give for `Cc1ncsc1CCSc1n[nH]c(=O)n1-c1ccccc1` here?
Answer: The Potency was inconclusive [inhibitor, single point].

Question: How did the Potency turn out when `CC(=NCc1cccnc1)C1=C(O)c2ccccc2C1=O` was run?
Answer: The Potency was inconclusive [inhibitor, single point].

Question: How did the Potency turn out when `Cc1nn(-c2ccccc2)c2sc(C(=O)OCC(=O)N3CCCCC3)cc12` was run?
Answer: The Potency was inconclusive [inhibitor, partial curve].

Question: Which activity, negative = inhibition does the source give for `C[C@H]1Cc2c(COc3ccccc3)nc3c(c2CO1)CN(C(=O)c1ccco1)CC3` here?
Answer: The activity, negative = inhibition was inactive: 2.22% [at 13.5 µM].

Question: Which Potency does the source give for `CCN1CCN(c2ncnc3c2sc(=S)n3-c2ccccc2)CC1` here?
Answer: The Potency was inconclusive [inhibitor, single point].

Question: With `CC(=O)N1CCCc2cc(S(=O)(=O)N(CC(C)C)CC(C)C)ccc21` as the molecule, how does the Potency read?
Answer: Its Potency is inconclusive [inhibitor, partial curve].

Question: How did the Potency turn out when `Cc1ccc(-n2nnnc2SCC(=O)N2CCc3ccccc3C2)c(C)c1` was run?
Answer: Its Potency is inconclusive [inhibitor, single point].

Question: `CCCCC1OC23CCCCC2C(C#N)(C(=N)O3)C1(C#N)C#N` (stereo unspecified) was tested. Which Potency did it give?
Answer: The Potency was inconclusive [inhibitor, partial curve].

Question: For `Fc1ccc(OCc2nnc(SCCN3CCOCC3)o2)cc1`, which “activity, negative = inhibition” value is on record?
Answer: The value was inactive: -8.55%.

Question: Which Potency does the source give for `COC(=O)CC(c1ccc(F)cc1)n1c(C)ccc1C` (stereo unspecified) here?
Answer: The Potency was inconclusive [inhibitor, single point].

Question: How did the Potency turn out when `CC(C)COc1ccc2[nH]c3c(c2c1)CCCC3=O` was run?
Answer: The Potency was inconclusive [inhibitor, single point].

Question: `CCOC(=O)CN1C(=O)C(CC)Oc2ccccc21` (stereo unspecified) was tested. Which “activity, negative = inhibition” value did it give?
Answer: The value was inactive: -5.5%.

Question: Which Potency does the source give for `CCCOc1ccc2c3c(c(=O)oc2c1)CCCC3` here?
Answer: Its Potency is inconclusive [inhibitor, partial curve].

Question: How did the Potency turn out when `CC(C)OC(=O)c1cc2c(OC[C@@H](O)CNC(C)(C)C)cccc2[nH]1` was run?
Answer: Its Potency is inconclusive [inhibitor, single point].

Question: Which Potency does the source give for `O=C(COC(=O)c1cncc(Br)c1)NC1CCCCCC1` here?
Answer: The Potency was inconclusive [inhibitor, single point].

Question: For `O=C(COC(=O)C12CC3CC(CC(C3)C1)C2)N1CCN(S(=O)(=O)c2ccccc2)CC1`, which Potency is on record?
Answer: Its Potency is inconclusive [inhibitor, partial curve].

Question: How did the Potency turn out when `CC1=C(C(=O)OCC2CCCO2)C(c2ccsc2)C2=C(CC(C)(C)CC2=O)N1` (stereo unspecified) was run?
Answer: Its Potency is inconclusive [inhibitor, single point].

Question: How did the Potency turn out when `O=C(c1cc2cc([N+](=O)[O-])ccc2s1)N1CCCCC1` was run?
Answer: The Potency was active: 14.1 µM.

Question: How did the Potency turn out when `COCCN1C(=O)/C(=C/c2ccc(Oc3ccc([N+](=O)[O-])cn3)c(OC)c2)SC1=Nc1ccccc1` was run?
Answer: Its Potency is active: 0.398 µM.

Question: How did the Potency turn out when `COc1cccc(CNC(=O)CCC2CCCN(C(=O)c3cc4ccccc4o3)C2)c1` (stereo unspecified) was run?
Answer: The Potency was inconclusive [inhibitor, single point].

Question: How did the Potency turn out when `CN(C)S(=O)(=O)c1cccc(NC(=O)CCSc2ccc(Cl)cc2)c1` was run?
Answer: Its Potency is inconclusive [inhibitor, single point].

Question: With `Cc1ccc(N2C(=O)c3ccccc3C2Nc2ccc(S(=O)(=O)N3CCCCC3)cc2)nc1` (stereo unspecified) as the molecule, how does the Potency read?
Answer: Its Potency is active: 14.1 µM.

Question: `O=C(NCCO)C(=O)c1c(-c2ccc(Cl)cc2)cc2ccccn12` was tested. Which “activity, negative = inhibition” value did it give?
Answer: Its value is inactive: -7.67%.

Question: With `COc1ccc2c(=O)cc(-c3ccccc3F)oc2c1` as the molecule, how does the Potency read?
Answer: Its Potency is inconclusive [inhibitor, partial curve].

Question: `COc1ncc2nc(C)c(=O)n(CCc3ccccc3)c2n1` was tested. Which Potency did it give?
Answer: The Potency was inconclusive [inhibitor, single point].

Question: With `CN(C(=O)COC(=O)CNC(=O)CNC(=O)c1ccc(Cl)cc1Cl)c1ccccc1` as the molecule, how does the “activity, negative = inhibition” value read?
Answer: The value was inactive: 7.86%.

Question: Which “activity, negative = inhibition” value does the source give for `CC1(OC(=O)c2cnc3ccccc3n2)C(=O)C=C2C=C(c3ccsc3)OC=C2C1=O` (stereo unspecified) here?
Answer: The value was inactive: -1.2%.

Question: For `CC(C)(C)NC(=O)CN(C(=O)Cn1nnc(-c2ccccc2F)n1)c1cccc2c1CCCC2`, which “activity, negative = inhibition” value is on record?
Answer: The value was inactive: -14.3%.

Question: How did the Potency turn out when `Cc1cc(C)nc(NS(=O)(=O)c2ccc(Br)s2)c1` was run?
Answer: The Potency was active: 25.1 µM.

Question: `CCOC(=O)N1CCC(NC(=O)CCC(=O)N2CCOc3ccc(Cl)cc32)CC1` was tested. Which Potency did it give?
Answer: The Potency was inconclusive [inhibitor, single point].

Question: How did the Potency turn out when `O=C(O)CCCC(=O)N1CCN(c2nc(-c3ccccc3)c3ccccc3n2)CC1` was run?
Answer: The Potency was inconclusive [inhibitor, single point].

Question: `Cc1cc(=O)oc2cc(NC(=O)CCCC(=O)O)ccc12` was tested. Which Potency did it give?
Answer: The Potency was inconclusive [inhibitor, partial curve].

Question: `Cc1ccc(S(=O)(=O)/N=C(\Nc2cccc(C)c2)Nc2nc(C)cc(C)n2)cc1` was tested. Which Potency did it give?
Answer: The Potency was active: 0.398 µM.

Question: For `COc1ccc(CN(C(=O)c2ccc(-c3ccccc3)[nH]2)C(C(=O)NCC2CCCO2)c2ccc(C)o2)cc1` (stereo unspecified), which Potency is on record?
Answer: Its Potency is active: 10 µM.

Question: For `N#Cc1c(NC(=O)CSc2ncc(-c3ccccc3)n2CC2CCCO2)sc2c1CCCC2` (stereo unspecified), which Potency is on record?
Answer: Its Potency is inconclusive [inhibitor, partial curve].

Question: With `CNC(=S)Nc1ccc(-c2nc3ccc(C)cc3s2)cc1` as the molecule, how does the Potency read?
Answer: The Potency was inconclusive [inhibitor, single point].

Question: With `C/C(=N\Nc1nc(-c2ccccc2)cs1)c1cccs1` as the molecule, how does the Potency read?
Answer: The Potency was inconclusive [inhibitor, single point].

Question: For `Cc1cc2c(=O)n(CC(=O)N3CCN(c4ccccc4)CC3)cnc2s1`, which “activity, negative = inhibition” value is on record?
Answer: The value was inactive: 2.03%.

Question: How did the Potency turn out when `Cc1ccc(S(=O)(=O)N2CCOCC2)cc1C(=O)N1C(=O)c2cccc(N)c2C1=O` was run?
Answer: Its Potency is inconclusive [inhibitor, partial curve].

Question: For `Cc1ccc(NC(=S)NCc2ccc3c(c2)OCO3)c(C)c1`, which “activity, negative = inhibition” value is on record?
Answer: Its value is inactive: -13.5%.

Question: `COc1ccc(Cc2nc(-c3cccnc3)no2)cc1OC` was tested. Which Potency did it give?
Answer: Its Potency is inconclusive [inhibitor, single point].

Question: With `O=C(O)COc1ccccc1/C=C1\SC(=S)N(c2cccnc2)C1=O` as the molecule, how does the Potency read?
Answer: The Potency was inconclusive [inhibitor, single point].

Question: For `Cc1nc2cnc(N3CCOCC3)nc2n(C)c1=O`, which Potency is on record?
Answer: The Potency was inconclusive [inhibitor, partial curve].

Question: For `COc1cccc([C@@H]2Oc3ccc(OC)cc3C[C@H]2OC(=O)Nc2cc(OC)c(OC)c(OC)c2)c1`, which “activity, negative = inhibition” value is on record?
Answer: The value was inactive: 7.17%.

Question: With `Cc1ccccc1OCC(=O)Nc1ccc(Cc2ccncc2)cc1` as the molecule, how does the Potency read?
Answer: The Potency was inconclusive [inhibitor, single point].

Question: For `Cc1ccc(NC(=O)C(=O)NN=C2CCCC2)cc1C`, which “activity, negative = inhibition” value is on record?
Answer: Its value is inactive: 2.31%.

Question: How did the Potency turn out when `CC1CCN(C2=NC(=O)/C(=C/c3cn[nH]c3-c3ccccc3)S2)CC1` was run?
Answer: The Potency was inconclusive [inhibitor, full curve].

Question: For `CCn1c(CNc2ccc(OC)cc2)nnc1SCC(=O)N1CCCc2ccccc21`, which Potency is on record?
Answer: The Potency was active: 7.08 µM.

Question: Which Potency does the source give for `CC1=NN(C(C#N)c2cccc([N+](=O)[O-])c2)C(C)(C)C1` (stereo unspecified) here?
Answer: The Potency was inconclusive [inhibitor, single point].

Question: Which Potency does the source give for `Brc1ccc(Oc2nnnn2-c2ccccc2)cc1` here?
Answer: Its Potency is inconclusive [inhibitor, single point].

Question: Which Potency does the source give for `O=C(Cc1ccc(NS(=O)(=O)c2ccc(F)cc2)cc1)NCc1ccccc1` here?
Answer: The Potency was inconclusive [inhibitor, single point].

Source: PubChem BioAssay AID1030 (National Center for Advancing Translational Sciences (NCATS), 2008)
